In PubChem BioAssay AID504845 (National Center for Advancing Translational Sciences (NCATS), 2011):
Hit rate of the full screen: of about 390,000 compounds, about 150 (0.038%) were called active. The shares of active, inactive and inconclusive entries below differ from those in the screen. Calls come from the whole dose curve; as a rule, active = well fitted inhibition curve with a large enough effect; inconclusive = small, poorly fitted or top-dose-only effect; inactive = no such curve, though single readings can be large or run the other way. Potencies beside an inconclusive call are fits to weak or partial responses and may not hold up.

Biological target: Regulator of G-protein signaling 4 (Homo sapiens) (UniProt P49798)
Test: Inhibitors of Regulator of G Protein Signaling (RGS) 4: qHTS; note: nearly all actives have a fitted effect of over 75% in size
Details: Transcreener GDP fluorescence polarization, RGS4-accelerated GTP hydrolysis; series mostly up to 114 µM
In short: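 MLSMR compounds (23 nl, pin-transferred) preincubated 10 min at room temperature with a 500nM (2x) first reagent, then RGS4 at 900nM (2x) plus Transcreener GDP mix added; fluorescence polarization (620/688 nm) read before and after 90 min at 30 °C.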
Potency is the fitted concentration of half-maximal effect; tags give direction and shape of the fitted curve.

Chain of UniProt P49798 (P49798 whole entry, looked up): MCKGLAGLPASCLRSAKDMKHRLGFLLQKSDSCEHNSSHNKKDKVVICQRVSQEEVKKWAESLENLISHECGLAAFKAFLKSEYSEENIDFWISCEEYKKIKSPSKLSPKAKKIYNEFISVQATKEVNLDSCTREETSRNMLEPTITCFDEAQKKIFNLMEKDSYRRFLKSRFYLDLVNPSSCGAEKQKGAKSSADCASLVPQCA

Q: With `Cn1ncc(SCc2ccccc2)c(Cl)c1=O` as the molecule, how does the Potency read?
A: inactive

Q: With `CC[C@]12c3[nH]c4cc(-c5ccco5)ccc4c3CCN1C(=O)[C@@H](CC(=O)NC/C=C(\C)CCC=C(C)C)C[C@@H]2C(=O)N1CCN(C(=O)c2ccco2)CC1` as the molecule, how does the Potency read?
A: inactive

Q: With `Cc1cc(C(=O)C(C)Cl)c(C)n1Cc1ccco1` (stereo not given) as the molecule, how does the Potency read?
A: inconclusive: 70.8 µM [inhibitor, partial curve, poor fit]

Q: With `O=C(NN1C(=O)NC2(CCCCC2)C1=O)c1cccs1` as the molecule, how does the Potency read?
A: inconclusive: 100 µM [inhibitor, single point]

Q: For `COc1ccc(/C=N/NC(=O)Nc2cccc3nsnc23)cc1`, which Potency is on record?
A: inconclusive: 79.4 µM [inhibitor, partial curve, poor fit]

Q: With `O=C(Nc1ccccc1)c1sc(Cl)nc1-c1ccccc1` as the molecule, how does the Potency read?
A: inactive

Q: With `O=C(/C=C/c1ccc(OCCCF)cc1)NCc1ccc(Cl)cc1` as the molecule, how does the Potency read?
A: inactive

Q: With `Cc1csc(SCC(=O)c2c(N)n(C)c(=O)n(C)c2=O)n1` as the molecule, how does the Potency read?
A: inconclusive: 89.1 µM [inhibitor, single point]

Q: `Cn1c(=O)c(-c2cc(=O)[nH][nH]2)c(O)c2ccccc21` was tested. Which Potency did it give?
A: inconclusive: 89.1 µM [inhibitor, partial curve, poor fit]

Q: With `COc1ccc(N(CC(=O)Nc2cc(C)ccc2C)S(=O)(=O)c2ccccc2[N+](=O)[O-])c(OC)c1` as the molecule, how does the Potency read?
A: inconclusive: 79.4 µM [inhibitor, partial curve, poor fit]

Q: With `N#C/C(=C\c1ccccc1OCc1ccc(C(=O)O)cc1)C(=O)Nc1ccc(O)cc1` as the molecule, how does the Potency read?
A: inconclusive: 39.8 µM [inhibitor, partial curve, poor fit]

Q: `COc1ccc(NC(=O)CN(C)C(=O)c2cc3c(s2)CCC3)cc1` was tested. Which Potency did it give?
A: inconclusive: 79.4 µM [inhibitor, partial curve, poor fit]

Q: For `CCc1nc2ccccc2c(C(=O)OCC(=O)Nc2ccc(S(=O)(=O)N3CCOCC3)cc2)c1C`, which Potency is on record?
A: inconclusive: 100 µM [inhibitor, single point]

Q: `Cc1ccc(S(=O)(=O)Nc2cc(C)cn(Cc3ccc(F)cc3)c2=O)cc1` was tested. Which Potency did it give?
A: inconclusive: 50.1 µM [inhibitor, partial curve, poor fit]

Q: For `CCC(C(=O)N1CCCC1)n1nc(C)c2c(C)n(-c3ccccc3)nc2c1=O` (stereo not given), which Potency is on record?
A: inactive

Q: `COc1ccc(OC)c(-n2nnnc2SCC(=O)N2CCN(C(=O)c3ccco3)CC2)c1` was tested. Which Potency did it give?
A: inconclusive: 50.1 µM [inhibitor, partial curve, poor fit]

Q: With `O=C(NC1CC1)c1ccc(NC(=O)C2CCC2)cc1` as the molecule, how does the Potency read?
A: inconclusive: 44.7 µM [inhibitor, partial curve, poor fit]

Q: Which Potency does the source give for `CCNc1nc(NCC)n2c(SCC(=O)Nc3ccc(CC)cc3)nnc2n1` here?
A: inconclusive: 20 µM [inhibitor, full curve, poor fit]

Q: `Cc1ccc(C(=O)N/N=C\C=C\c2ccccc2[N+](=O)[O-])cn1` was tested. Which Potency did it give?
A: inactive

Q: How did the Potency turn out when `COc1cc2c(cc1OC)C(C)N(C(=S)NC(=O)c1ccccc1)CC2` (stereo not given) was run?
A: inconclusive: 100 µM [inhibitor, single point]

Q: Which Potency does the source give for `N=C1/C(=C\c2ccc(OC(=O)c3ccco3)cc2)C(=O)N=C2SC(N3CCCCC3)=NN12` here?
A: inconclusive: 70.8 µM [inhibitor, single point]

Q: How did the Potency turn out when `Cc1nc2ccccn2c(=O)c1CCN1CCC(C(=O)c2ccc(F)cc2)CC1` was run?
A: inactive

Q: How did the Potency turn out when `COCCCNC(=O)Cn1c(=O)n(Cc2ccc(C(=O)NCc3ccc(C)cc3)cc2)c(=O)c2ccccc21` was run?
A: inconclusive: 100 µM [inhibitor, partial curve, poor fit]

Q: How did the Potency turn out when `O=C(Nc1ccc(Cl)cc1)N1CC=CCC1` was run?
A: inactive

Q: For `Cc1ccccc1Cn1cc(CCC(=O)NC(C)c2ccccc2)c2ccccc21` (stereo not given), which Potency is on record?
A: inactive

Q: Which Potency does the source give for `CC(C)c1ccc(CN2CCN(C(=O)CCl)CC2)cc1` here?
A: inactive

Q: How did the Potency turn out when `CCC(C)c1ccc(OCC(=O)Nc2cccc(-c3nc4ncccc4o3)c2)cc1` (stereo not given) was run?
A: inactive

Q: For `N[C@@H](Cn1ccc(=O)n(Cc2ccccc2C(=O)O)c1=O)C(=O)O`, which Potency is on record?
A: inactive

Q: With `C=CCC(C)(NCc1ccccc1)c1ccccc1` (stereo not given) as the molecule, how does the Potency read?
A: inconclusive: 70.8 µM [inhibitor, partial curve, poor fit]

Q: `CCOc1ccc(/C=N/NC(=O)c2cc(-c3ccco3)nc3ccccc23)cc1` was tested. Which Potency did it give?
A: inconclusive: 50.1 µM [inhibitor, partial curve, poor fit]

Q: How did the Potency turn out when `NC1(C(=O)O)CSSC1` was run?
A: inconclusive: 89.1 µM [inhibitor, single point]

Q: Which Potency does the source give for `COc1ccc(C2=Nn3c(nnc3-c3ccccc3C(F)(F)F)SC2)cc1OC1CCOC1` (stereo not given) here?
A: inconclusive: 44.7 µM [inhibitor, partial curve, poor fit]

Q: How did the Potency turn out when `Cc1cc(=O)cc(C)n1-c1ccc(Br)cc1` was run?
A: inconclusive: 89.1 µM [inhibitor, partial curve, poor fit]

Q: `COc1ccc(NC2CC(=O)N(C(C)C)C2=O)cc1` (stereo not given) was tested. Which Potency did it give?
A: inactive

Q: `Cc1ccc(-c2nn(-c3ccccc3)cc2CN(Cc2ccccc2)C(=O)CCC(=O)O)o1` was tested. Which Potency did it give?
A: inconclusive: 50.1 µM [inhibitor, partial curve, poor fit]

Q: How did the Potency turn out when `S=c1[nH]nc(-c2ccccn2)n1/N=C/c1ccc(-c2ccccc2Br)o1` was run?
A: inconclusive: 50.1 µM [inhibitor, partial curve, poor fit]

Q: With `CSCC[C@H](NC(=O)Cc1c(C)c2cc3c4c(oc3cc2oc1=O)CCCC4)C(=O)O` as the molecule, how does the Potency read?
A: inconclusive: 56.2 µM [inhibitor, partial curve, poor fit]

Q: Which Potency does the source give for `COc1ccc(CNC(=O)CN2C(=O)c3ccccc3S2(=O)=O)cc1` here?
A: inconclusive: 89.1 µM [inhibitor, single point]

Q: `CCCCC[C@H](O)/C=C/[C@H]1[C@H](O)CC(=O)[C@@H]1C/C=C\CCCC(=O)O` was tested. Which Potency did it give?
A: inconclusive: 29.9 µM [inhibitor, partial curve, poor fit]

Q: `CC(C)(C)OC(=O)N1CCC(c2c(C(=O)NCCN3CCC(Cc4ccccc4)CC3)cnn2-c2cccc(Cl)c2)CC1` was tested. Which Potency did it give?
A: inactive

Q: With `O=C(Nc1ccccc1F)c1nc(S(=O)(=O)Cc2ccccc2F)ncc1Cl` as the molecule, how does the Potency read?
A: inconclusive: 10 µM [inhibitor, full curve, poor fit]

Q: How did the Potency turn out when `O=C(O)c1cc(N2N=C(C(F)(F)F)/C(=C/C=C/c3ccco3)C2=O)ccc1Cl` was run?
A: inconclusive: 17.8 µM [inhibitor, full curve, poor fit]

Q: For `Clc1cccc(-n2ncc3c(NC4CCCCC4)ncnc32)c1`, which Potency is on record?
A: inactive

Q: With `O=S(=O)(NCCC(c1ccc(F)cc1)c1ccco1)c1ccccc1` (stereo not given) as the molecule, how does the Potency read?
A: inconclusive: 31.6 µM [inhibitor, full curve, poor fit]

Q: `CC(=O)c1ccc(NC(=S)Nc2cccc3cnccc23)cc1` was tested. Which Potency did it give?
A: inconclusive: 50.1 µM [inhibitor, partial curve, poor fit]

Q: With `COc1cc(CN2CCCCC2C(=O)Nc2ccc(Oc3ccccc3)nc2)ccc1O` (stereo not given) as the molecule, how does the Potency read?
A: inactive

Q: How did the Potency turn out when `CCC(=O)N(CCC(c1ccc(C)cc1)c1ccco1)Cc1ccco1` (stereo not given) was run?
A: inactive

Q: Which Potency does the source give for `COC(=O)c1ccccc1Nc1cc(C)nc2nc(C)nn12` here?
A: inconclusive: 70.8 µM [inhibitor, partial curve, poor fit]

Q: How did the Potency turn out when `CN(C)NC(=O)C(NC(=O)c1ccc(N)cc1)C12CC3CC(CC(C3)C1)C2` (stereo not given) was run?
A: inconclusive: 50.1 µM [inhibitor, partial curve, poor fit]

Q: How did the Potency turn out when `CCC(c1nnnn1C1CCCC1)N1CCN(Cc2ccccc2)CC1` (stereo not given) was run?
A: inactive

Q: With `O=C(/C=C/c1ccco1)NC(=S)Nc1ccc(C(=O)O)cc1` as the molecule, how does the Potency read?
A: inconclusive: 70.8 µM [inhibitor, partial curve, poor fit]

Q: For `CS(=O)(=O)N1CCC(C(=O)N2CCN(c3ccccc3F)CC2)CC1`, which Potency is on record?
A: inconclusive: 35.5 µM [inhibitor, partial curve, poor fit]

Q: How did the Potency turn out when `COc1cccc(-c2nnc(SCc3ccc(C#N)cc3)n2Cc2ccco2)c1` was run?
A: inconclusive: 89.1 µM [inhibitor, single point]

Q: Which Potency does the source give for `COc1cc(/C=C2\C(=O)N(CCC#N)N=C2C)ccc1OCC(=O)Nc1ccccc1` here?
A: inconclusive: 17.8 µM [inhibitor, full curve, poor fit]

Q: Which Potency does the source give for `CCCn1c(N)c(C(c2ccc(OC)cc2)N2CCN(c3ccccc3)CC2)c(=O)[nH]c1=O` (stereo not given) here?
A: inactive

Q: How did the Potency turn out when `Cc1cccc(NS(=O)(=O)c2cc(Cl)ccc2Cl)n1` was run?
A: inconclusive: 89.1 µM [inhibitor, single point]

Q: With `C[C@@H]1CN([C@H](C)CO)C(=O)c2cc(NC(=O)Nc3ccc(C(F)(F)F)cc3)ccc2O[C@H]1CN(C)S(=O)(=O)c1cccs1` as the molecule, how does the Potency read?
A: inactive

Q: `O=C(NCc1ccccc1)C(=O)Nc1nccs1` was tested. Which Potency did it give?
A: inconclusive: 17.8 µM [inhibitor, full curve, poor fit]

Q: With `CCCCSc1nc(O)c(C2OC(=O)c3c2ccc(OC)c3OC)c(=O)n1C` (stereo not given) as the molecule, how does the Potency read?
A: inconclusive: 89.1 µM [inhibitor, single point]

Q: With `COc1cccc(NC(=O)NC2(C(F)(F)F)Oc3ccccc3O2)c1` as the molecule, how does the Potency read?
A: inconclusive: 79.4 µM [inhibitor, single point]

Q: Which Potency does the source give for `CC(C)C(c1nnnn1CC1CCCO1)N1CCN(Cc2ccc3c(c2)OCO3)CC1` (stereo not given) here?
A: inconclusive: 89.1 µM [inhibitor, single point]

Q: For `O=C1NC(=O)N2CCSC2(Cc2ccccc2)N1` (stereo not given), which Potency is on record?
A: inconclusive: 89.1 µM [inhibitor, partial curve, poor fit]

Q: For `O=S(=O)(c1ccc(Br)s1)N1CCN(c2cccc(C(F)(F)F)c2)CC1`, which Potency is on record?
A: inactive

Q: `CCCCC/C=C\C/C=C\C/C=C\CCCCCCC(=O)O` was tested. Which Potency did it give?
A: inconclusive: 1.34 µM [inhibitor, full curve, poor fit]

Q: For `CC(C)CC(=O)NC(c1cccs1)c1ccc2cccnc2c1O` (stereo not given), which Potency is on record?
A: inactive
